The record followed here is paper PMC4336329 (PLoS ONE, 2015).

In all, about 310,000 compounds went through this assay and about 2,200 (0.71%) showed an effect of 50% or more. Effects have a minus sign here. This is one part of the list.

For the test, the target named is human ether-à-go-go-related gene (hERG) potassium channel (human, UniProt Q12809). Description: primary screen, population patch clamp on CHO cells stably expressing hERG.
human ether-à-go-go-related gene (hERG) potassium channel, sequence (Q12809 whole entry, looked up): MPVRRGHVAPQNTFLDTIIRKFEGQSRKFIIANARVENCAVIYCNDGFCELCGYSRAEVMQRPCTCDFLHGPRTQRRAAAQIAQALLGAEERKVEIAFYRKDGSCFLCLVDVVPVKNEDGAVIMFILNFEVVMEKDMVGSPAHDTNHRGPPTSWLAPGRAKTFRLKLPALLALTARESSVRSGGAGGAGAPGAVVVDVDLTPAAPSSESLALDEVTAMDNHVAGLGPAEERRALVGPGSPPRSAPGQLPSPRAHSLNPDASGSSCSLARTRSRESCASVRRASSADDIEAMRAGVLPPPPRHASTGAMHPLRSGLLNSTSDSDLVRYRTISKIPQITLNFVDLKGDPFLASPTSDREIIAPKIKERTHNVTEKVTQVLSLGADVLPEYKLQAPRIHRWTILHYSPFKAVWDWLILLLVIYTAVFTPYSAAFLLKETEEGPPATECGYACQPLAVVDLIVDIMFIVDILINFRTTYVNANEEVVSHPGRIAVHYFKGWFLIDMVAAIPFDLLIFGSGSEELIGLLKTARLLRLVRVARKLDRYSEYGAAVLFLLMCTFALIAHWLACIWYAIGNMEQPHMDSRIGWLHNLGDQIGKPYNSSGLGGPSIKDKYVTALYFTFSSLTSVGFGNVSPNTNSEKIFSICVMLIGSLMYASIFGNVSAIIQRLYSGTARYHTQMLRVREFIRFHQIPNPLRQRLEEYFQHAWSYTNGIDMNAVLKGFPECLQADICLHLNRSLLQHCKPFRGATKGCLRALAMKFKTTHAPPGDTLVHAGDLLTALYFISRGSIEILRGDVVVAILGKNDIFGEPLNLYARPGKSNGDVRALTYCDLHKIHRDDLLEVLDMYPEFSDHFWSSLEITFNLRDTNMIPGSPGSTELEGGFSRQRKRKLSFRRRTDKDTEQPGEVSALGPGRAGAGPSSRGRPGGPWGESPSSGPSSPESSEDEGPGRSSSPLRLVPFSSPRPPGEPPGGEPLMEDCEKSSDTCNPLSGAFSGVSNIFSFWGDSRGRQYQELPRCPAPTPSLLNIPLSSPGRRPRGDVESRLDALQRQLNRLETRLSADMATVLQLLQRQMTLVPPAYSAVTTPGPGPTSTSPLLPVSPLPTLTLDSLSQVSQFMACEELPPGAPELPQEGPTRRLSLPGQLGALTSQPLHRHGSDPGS
Turning to `Nc1c(C(=O)NCCc2ccccc2)nnn1Cc1ccc(Cl)cc1`, the “hERG current change (%, negative = inhibition) at 1uM” value was 12.7%.

Regarding `COc1ccccc1CNC(=O)CN1C(=O)CSc2ccc(S(=O)(=O)N3CCCC3)cc21`, the “hERG current change (%, negative = inhibition) at 1uM” value is on record as 11.5%. In the case of `O=C(Cc1ccsc1)Nc1ccc2c(c1)OCO2` it was 5.15%; in that of `CCCCCCCCCCCCOC(=O)C[N+](C)(C)C.[Cl-]`, -9.16%; in that of `CC(C)(C)c1cc(NC(=O)C2CCCO2)no1` (centres unmarked), 2.05%. Then `O=C(NC1CCCCC1)c1ccc(S(=O)(=O)c2ccccc2Cl)c([N+](=O)[O-])c1`, with 6.02%; and `CC(C)(C)C1CCc2c(sc(NC(=O)C3CC=CCC3C(=O)O)c2C#N)C1` (centres unmarked), with 10.9%. Take `COc1ccccc1NC(NC(=O)c1cccnc1)C(Cl)(Cl)Cl` (centres unmarked): the “hERG current change (%, negative = inhibition) at 1uM” value is on record as -12.5%.

Turning to `Cc1[nH]n(C)c(=O)c1C(=O)c1c(-c2c(Cl)cccc2Cl)noc1C`, the “hERG current change (%, negative = inhibition) at 1uM” value is listed as 4%. `CCOc1ccc(C2CC(c3ccc(F)cc3)n3ncnc3N2)cc1` (centres unmarked): the “hERG current change (%, negative = inhibition) at 1uM” value was determined as 4.85%. Take `Cc1nn(CC(=O)NCC2CCCO2)c(=O)c2ccccc12` (centres unmarked): the “hERG current change (%, negative = inhibition) at 1uM” value turned out to be 8.43%. Consider `Cc1cc(S(=O)(=O)N2CCCCC2)ccc1OCC(=O)Nc1ccccc1`, for which the “hERG current change (%, negative = inhibition) at 1uM” value was 3.39%. Then `COc1cccc(CNC(=O)CCCCCNC(=O)N2CCn3c2nc2ccccc23)c1`, with 5.94%; and `CC(NC(=O)C12CC3CC(CC(C3)C1)C2)C(=O)NCCN(C)C.Cl` (centres unmarked), with 3.84%. For `COc1ccc(/C=C(/NC(=O)c2ccc(C)cc2)c2nc3ccccc3[nH]2)cc1OC`, the “hERG current change (%, negative = inhibition) at 1uM” value was found to be 8.94%.

Turning to `O=C(O)c1c(-c2ccccc2)nnc2ccccc12`, the “hERG current change (%, negative = inhibition) at 1uM” value is 14.7%. Regarding `CCN(CC)S(=O)(=O)c1ccc(C)c(NC(=O)CN2CCN(Cc3ccccc3)CC2)c1.Cl`, the “hERG current change (%, negative = inhibition) at 1uM” value is reported as -44.6%. Then `N#CC1(NC(=O)CSc2ccccn2)CCCCC1`, with 7.24%. As for `Cc1ccc(-n2nc3c(N4CCC(C(=O)NCCc5ccccc5C)CC4)nnc(C)c3c2C)cc1`, the “hERG current change (%, negative = inhibition) at 1uM” value stood at 6%.

Take `c1ccc(Oc2ccc(-c3ccn[nH]3)cc2)cc1`: the “hERG current change (%, negative = inhibition) at 1uM” value was -2.29%. Consider `O=C(Nc1cccc(Cl)c1)Nc1ccc(Cl)cn1`, for which the “hERG current change (%, negative = inhibition) at 1uM” value was 11.3%.

`Cc1ccccc1NC(=O)CSc1nc2ccccc2c(=O)n1C`: the “hERG current change (%, negative = inhibition) at 1uM” value was 7.96%.

For `CCc1nn(C(C)C(=O)N2CCN(c3ccc(OC)cc3)CC2)c(=O)c2cc3occc3n12` (centres unmarked), the “hERG current change (%, negative = inhibition) at 1uM” value is reported as -0.509%. Consider `COc1cc(C(=O)Nc2nnc(C3=COCCO3)o2)cc(OC)c1OC`, for which the “hERG current change (%, negative = inhibition) at 1uM” value was 20.4%. For `O=C(Cc1ccccc1[N+](=O)[O-])NCc1ccncc1`, the “hERG current change (%, negative = inhibition) at 1uM” value is 8.8%. As for `Cc1cc[n+](CC(=O)c2ccccc2)c2ccccc12.[Br-]`, the “hERG current change (%, negative = inhibition) at 1uM” value is 6.22%.

Take `O=C(NCCc1csc(-c2cccnc2)n1)c1ccc(Br)o1`: the “hERG current change (%, negative = inhibition) at 1uM” value came to 3.63%. In the case of `COc1ccc(NC(=O)CCCn2c(=O)c3sccc3n(Cc3ccccc3)c2=O)cc1` it was 4.05%. In the case of `CC(C)Oc1cc(N)c(Cl)cc1Cl`, the “hERG current change (%, negative = inhibition) at 1uM” value amounted to 15.8%. For `CC(=O)c1cccc(NC(=O)c2ccco2)c1`, the “hERG current change (%, negative = inhibition) at 1uM” value worked out at 13.4%. In the case of `COc1ccc(-n2c(=O)c3ccccc3n(CC(=O)NC3CCCCC3)c2=O)cc1` it was 18.3%; in that of `O=S1(=O)CCOCCCN1Cc1ccccc1`, 7.87%; in that of `Cc1ccc(NC(=O)CNC(=O)c2cccs2)nc1`, 12.4%. Take `CCOC(=O)C1C(=O)NC(c2ccccc2)=NC1c1ccc(C(C)C)cc1` (centres unmarked): the “hERG current change (%, negative = inhibition) at 1uM” value came out at 1.93%. Then `CC1(C)CC(=O)C(C=NCc2ccccn2)=C(O)C1`, with 12.6%.

Consider `O=C(CN1CCN(C/C=C/c2ccccc2)CC1)NCc1ccc(Cl)cc1`, for which the “hERG current change (%, negative = inhibition) at 1uM” value is listed as -72.5%.

With `COC(=O)Cn1c(=NC(=O)C(C)(C)C)sc2c(C)cc(C)cc21`, the “hERG current change (%, negative = inhibition) at 1uM” value is on record as 0.506%. As for `Cc1cc(NC(=O)CSCC(=O)Nc2nc3c(C)cccc3s2)no1`, the “hERG current change (%, negative = inhibition) at 1uM” value is listed as 6.68%. With `CCc1cc(=O)oc2cc(C)cc(OC(C)C(=O)NC3CC(C)(C)NC(C)(C)C3)c12` (centres unmarked), the “hERG current change (%, negative = inhibition) at 1uM” value was determined as 29.3%. `CCN(CC)c1ccc(/C=N/NC(=O)CN2CCCc3ccccc32)cc1`: the “hERG current change (%, negative = inhibition) at 1uM” value was 2.55%. Then `COc1ccc2nc(-c3ccc(N)cc3)[nH]c2c1`, with 10.4%. In the case of `O=C(NNS(=O)(=O)c1ccc(F)cc1)C1CCN(Cc2cccc(F)c2)CC1`, the “hERG current change (%, negative = inhibition) at 1uM” value is recorded as 5.01%. For the molecule `O=C(CCCn1c(SCc2cc(=O)n3cc(Cl)ccc3n2)nc2ccccc2c1=O)NCC1CCCO1` (centres unmarked), the “hERG current change (%, negative = inhibition) at 1uM” value is -10.1%.

Turning to `O=C(NC1CCCc2ccccc21)c1ccc([N+](=O)[O-])cc1` (centres unmarked), the “hERG current change (%, negative = inhibition) at 1uM” value is recorded as -10.3%. With `Cc1ccc(-c2nc(N/N=C/c3cccnc3)c3ccccc3n2)cc1`, the “hERG current change (%, negative = inhibition) at 1uM” value amounted to 10.3%. Take `Cn1c(-c2ccc(F)cc2)cnc1NCc1cccc(F)c1`: the “hERG current change (%, negative = inhibition) at 1uM” value is reported as -7.72%. Regarding `COc1ccccc1Nc1ccc(Nc2ccccc2OC)nn1`, the “hERG current change (%, negative = inhibition) at 1uM” value turned out to be 10.2%. In the case of `O=C(CCN1C(=O)NC2(CCCC2)C1=O)Nc1ccc(-c2nc3ccccc3s2)cc1`, the “hERG current change (%, negative = inhibition) at 1uM” value was determined as 12.9%. Consider `Cc1nc2ccccn2c1C(=O)Nc1ccc2c(c1)OCCO2`, for which the “hERG current change (%, negative = inhibition) at 1uM” value is 1.92%.

With `O=C1c2ccccc2C(=O)C1c1ccc(Br)cc1`, the “hERG current change (%, negative = inhibition) at 1uM” value is 17.3%. For the molecule `COc1cc(C(CCN2CCN(c3ccccc3)CC2)c2c(OC)cc(OC)c3c(C)cc(=O)oc23)cc(OC)c1OC` (centres unmarked), the “hERG current change (%, negative = inhibition) at 1uM” value was determined as 9.23%. Then `CN1CCN(C(=O)c2ccccc2NC(=O)CCN2C(=O)c3ccccc3C2=O)CC1`, with 7.75%; and `Cc1ccccc1NC(=S)NNC(=O)c1cccc(Br)c1`, with 1.6%. `CC(C(=O)Nc1ccccc1Br)N1c2cccc3cccc(c23)S1(=O)=O` (centres unmarked): the “hERG current change (%, negative = inhibition) at 1uM” value is 18.5%.

For `CC(Oc1cccc(Cl)c1)C(=O)NCc1ccc(S(N)(=O)=O)cc1` (centres unmarked), the “hERG current change (%, negative = inhibition) at 1uM” value came out at 14.4%.

`CCCOc1ccc(-c2nc(OC)c3ccccc3n2)cc1`: the “hERG current change (%, negative = inhibition) at 1uM” value was 2.6%. For the molecule `CCCn1nnc(NC(=S)NC(=O)Cc2ccccc2)n1`, the “hERG current change (%, negative = inhibition) at 1uM” value was 10%.

As for `O=C(CN(Cc1ccco1)S(=O)(=O)c1cccs1)Nc1ccccc1C(F)(F)F`, the “hERG current change (%, negative = inhibition) at 1uM” value is 5.34%. With `O=C(O)CSCC(=O)N1CCc2c([nH]c3ccccc23)C1C(F)(F)F` (centres unmarked), the “hERG current change (%, negative = inhibition) at 1uM” value is given as 9.86%. Regarding `O=C(C1CCC(CNc2c(N3CCCCC3)c(=O)c2=O)CC1)N1CCCC1` (centres unmarked), the “hERG current change (%, negative = inhibition) at 1uM” value is recorded as 2.53%. In the case of `Cl.OCCNc1nc(N2CCCCC2)nc2ccccc12` it was -18.4%. In the case of `CCc1ccc(NS(=O)(=O)c2ccc(C)c(C(=O)N3CCOCC3)c2)cc1` it was 15.8%; in that of `COc1cccc(=O)c2c(C)n(CC(=O)c3ccccc3)c(C)c12`, 5.6%; in that of `O=C1NCCCC1C(=O)NCCN1C(=O)CCC1=O` (centres unmarked), 2.25%. With `O=[N+]([O-])c1cnn(-c2nc(-c3ccccc3)cc(C(F)(F)F)n2)c1`, the “hERG current change (%, negative = inhibition) at 1uM” value was 10.7%.

Take `C/C(=N\S(=O)(=O)c1ccc(C)cc1)NC(=S)Nc1ccccc1`: the “hERG current change (%, negative = inhibition) at 1uM” value worked out at 4.4%. `COc1ccc(-c2cn(-c3ccc(SC(F)F)cc3)c3[n+]2CCC3)cc1OC.[Br-]`: the “hERG current change (%, negative = inhibition) at 1uM” value is on record as -27%. In the case of `CCOC(=O)c1c(NC(=O)/C=C/c2ccc(C)o2)sc(C)c1C` it was 4.18%. In the case of `CC(=O)Nc1ccc(-c2csc(NC(=O)CC(NC(C)=O)c3ccccc3)n2)cc1` (centres unmarked) it was 16.7%.

In the case of `O=C(CN1CCN(c2cccc(Cl)c2)CC1)NC1CCCc2ccccc21` (centres unmarked), the “hERG current change (%, negative = inhibition) at 1uM” value was 13.2%. Take `O=C(CCNC(=O)c1ccc(Cl)cc1)Nc1ncccc1O`: the “hERG current change (%, negative = inhibition) at 1uM” value was 9.12%. On to `O=C(CCc1ccccc1)NNC(=O)C1CCCCC1`, for which the “hERG current change (%, negative = inhibition) at 1uM” value was 5.85%. As to `CC1CC(C)(C)CC2(C1)NC(=O)N(CC(=O)NCCc1ccc3c(c1)OCCO3)C2=O` (centres unmarked), the “hERG current change (%, negative = inhibition) at 1uM” value is listed as 10.1%. With `CCCCSc1ncnc2[nH]ncc12`, the “hERG current change (%, negative = inhibition) at 1uM” value stood at 3.41%.

For `CCOC(=O)CN1C(=O)C(O)(CC(=O)c2ccc3c(c2)CCCC3)c2ccccc21` (centres unmarked), the “hERG current change (%, negative = inhibition) at 1uM” value was found to be 18.9%. As for `Cc1ccccc1Oc1ccc(Oc2ccccc2C)nn1`, the “hERG current change (%, negative = inhibition) at 1uM” value amounted to 13%. In the case of `CC(C)Sc1nc2c(c(=O)n1-c1ccc(F)cc1)SCC2` it was 15.4%. As for `CCOc1cc(C(=O)Nn2cnnc2)cc(OCC)c1OCC`, the “hERG current change (%, negative = inhibition) at 1uM” value was 8.51%.

Take `COc1ccc(N2C(=O)CC(N3CCN(c4nc5ccccc5s4)CC3)C2=O)cc1` (centres unmarked): the “hERG current change (%, negative = inhibition) at 1uM” value is recorded as -5.74%. Consider `Cc1ccc(C(=O)Cn2c(=N)n(CCN3CCOCC3)c3ccccc32)cc1.[Br-]`, for which the “hERG current change (%, negative = inhibition) at 1uM” value is on record as -20.3%.

Turning to `Cc1ccc(CNC(=O)C2CCC(=O)N(Cc3cccc(C(F)(F)F)c3)C2)o1` (centres unmarked), the “hERG current change (%, negative = inhibition) at 1uM” value is -12%. Then `Cc1nn(CC(=O)N2CCC3(CC2)OCCO3)c(=O)c2cc3ccccc3n12`, with 19.4%; and `COc1cc2c3nnc(-c4ccc(F)cc4)c-3cn(Cc3ccc(C)cc3)c2cc1OC`, with 13.5%; and `CC(CNC(=O)CCS(=O)(=O)c1ccc2c(c1)NC(=O)CO2)c1ccccc1` (centres unmarked), with -17.1%.

Regarding `NC(=O)C1CCN(C(=O)CCCCCn2c(=O)[nH]c3ccsc3c2=O)CC1`, the “hERG current change (%, negative = inhibition) at 1uM” value is reported as 3.78%. In the case of `CC(C)(c1ccccc1)c1ccc(OCC(O)CN2CCCC2)cc1.Cl` (centres unmarked), the “hERG current change (%, negative = inhibition) at 1uM” value came out at 8.92%.

For `C=CCn1c(O)c(/C=N/N2CCCCC2c2cccnc2)c(=O)[nH]c1=S` (centres unmarked), the “hERG current change (%, negative = inhibition) at 1uM” value was -1.85%.

In the case of `CCN(Cc1ccccc1)C(=O)CC1Oc2ccccc2NC1=O` (centres unmarked), the “hERG current change (%, negative = inhibition) at 1uM” value is on record as -6.32%. Turning to `Cc1c(C(=O)NCc2ccc3c(c2)OCO3)oc2ccc(S(=O)(=O)N3CCCCC3)cc12`, the “hERG current change (%, negative = inhibition) at 1uM” value was 0.566%.
